± gives the standard deviation. Over roughly 3,000 sequences, “pre-steady-state target cleavage rate” has its median near 0.0079; the highest 2% begin near 0.2. The entries are a selection whose mix differs from that of the whole data set.

This note sets out measurements from the supplement of paper PMC10338343.

The assay has as its system MILI (PIWIL2) piRISC loaded with piRNA #2 (26 nt). The assay can be described thus: pre-steady-state target cleavage rate (min^-1); MIWI and MILI are mouse PIWI proteins and EfPiwi is from a freshwater sponge; tags in brackets are library labels; higher = faster piRNA-guided slicing of the target. The conditions noted are these: guide: piRNA #2 5'p-UUAGGUAACCCAGUAGAUCCAGAGGA; auxiliary factor: 500 nM mouse GTSF1. Summed up:
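Using HEPES–potassium acetate buffer at 33 °C, 1 nM active affinity-purified piRISC with a single synthetic guide was mixed with 0.1 nM transcribed, DNA-blocked target RNA library for 0–8 or 0–960 min, with or without 500 nM GTSF1 partner protein. Uncleaved targets were sequenced and normalised to depth and to weakly complementary targets, and three trials were pooled with k3 capped at 0.0001 min^-1. A burst-and-steady-state fit gave the pre-steady-state cleavage rate.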
For the sequence CUUAAGCUCUGGAUCUACUGGGUUACCAA, the “pre-steady-state target cleavage rate” value was found to be 0.11 ± 0.024. Regarding CUUAUCCUCUGGAUCUACUGGGAUACCUAA, the “pre-steady-state target cleavage rate” value worked out at 0.0509 ± 0.014. Take CUUAAGGAGACCUAGUACUGGGUUAGCUAA: the “pre-steady-state target cleavage rate” value was less than 0.0001. On to CUUAAGGAGUGGUUCUAGUGGGUUACCUAA, for which the “pre-steady-state target cleavage rate” value is 0.0079 ± 0.0042.

Take CUUAAGGUCUGGAUCUACUGGGUUACUCUAA: the “pre-steady-state target cleavage rate” value turned out to be 0.0211 ± 0.007.

As to CUUAAGGAGAGCAUCUACUCGGUUACCUAA, the “pre-steady-state target cleavage rate” value turned out to be 0.00338 ± 0.0022.

Turning to CUUAAGGUCUGGAUCUACUGGGUUACCUCA, the “pre-steady-state target cleavage rate” value amounted to 0.0544 ± 0.013.

Regarding CUUAACGUCUCGAUCUACUGGGUUACCUAA, the “pre-steady-state target cleavage rate” value amounted to 0.1 ± 0.019. For the sequence CUUAUCCACUGGAUCUACUGGGUUACCUAA, the “pre-steady-state target cleavage rate” value stood at 0.124 ± 0.016.

Turning to CUUAACCUGUCGAUCUACUGGGUUACCUAA, the “pre-steady-state target cleavage rate” value turned out to be 0.0671 ± 0.016. On to CUUAUCCUCUGGAUGUACUGGGUUACCAAA, for which the “pre-steady-state target cleavage rate” value was determined as 0.0487 ± 0.013.

On to CUUAACCUCUGGAUCUACUCGCUUACCUAA, for which the “pre-steady-state target cleavage rate” value was less than 0.0001. On to CUUAACCUCUGCAUCUACUGCGUUACCUAA, for which the “pre-steady-state target cleavage rate” value stood at 0.0245 ± 0.0094. For CUUAAGGUCUCGAACUACUGGGUUACCUAA, the “pre-steady-state target cleavage rate” value was found to be 0.0138 ± 0.0082. To CUUAAGCUCUGGAUCUACUGGGUUACCAUA belongs 0.0861 ± 0.017; to CUUAAGGUCUCGAUCUACUGGGUUACCUAA, 0.0762 ± 0.018; to CUUAAGGAGAAGAUCUACUGGGUUACCUAA, 0.00422 ± 0.0031. Turning to CUUAUCGUCUGGAUCUACUGGGUUACCUAA, the “pre-steady-state target cleavage rate” value turned out to be 0.0863 ± 0.015.

Consider CUUAACCUCUGGAUCAUCUGGGUUACCUAA, for which the “pre-steady-state target cleavage rate” value worked out at 0.0737 ± 0.025. Then CUUAAGGACUGGCAUCUACUGGGUUACCUAA, with 0.0524 ± 0.018; and CUUAUCCUGUGGAUCUUCUGGGUUACCUAA, with 0.0487 ± 0.014. As for CUUAUCCUCUGGAUCUACUGGGCUACCUAA, the “pre-steady-state target cleavage rate” value is 0.0338 ± 0.013.

With CUUAUCCUCUGGAUCUAGUGGGUAACCUAA, the “pre-steady-state target cleavage rate” value worked out at 0.0205 ± 0.0054. For the sequence CUUAUGCUCUGGAUGUACUGGGUUACCUAA, the “pre-steady-state target cleavage rate” value stood at 0.0965 ± 0.021. Turning to CUUAUCCUCUGGAUCUACUGGGUUAGCUUA, the “pre-steady-state target cleavage rate” value amounted to 0.128 ± 0.031. CUUAAGGAGACCUAGUACAGGCUUACCUAA: the “pre-steady-state target cleavage rate” value was less than 0.0001.

For CUUAAGCUCUGGAUCUAUUGGGUUACCUAA, the “pre-steady-state target cleavage rate” value is 0.0302 ± 0.0083. For the sequence CUUAAGCUCUGGUUCUACAGGGUUACCUAA, the “pre-steady-state target cleavage rate” value stood at 0.104 ± 0.021.

For the sequence CUUAACCUCUGGAUCUACAGGGUUAGCUAA, the “pre-steady-state target cleavage rate” value stood at 0.0246 ± 0.0085.

With CUUAAGGUCUGGAUCUUCUGGGUUACCUAA, the “pre-steady-state target cleavage rate” value turned out to be 0.0671 ± 0.015. For CUUAUCCUCUGGAUCUACUGGGAUACGUAA, the “pre-steady-state target cleavage rate” value is 0.00621 ± 0.0037. Regarding CUUAAGGUGUGGAUCUACAGGGUUACCUAA, the “pre-steady-state target cleavage rate” value stood at 0.0839 ± 0.013. On to CUUAAGGUCUGGAUCUACUGGGUUACGUUA, for which the “pre-steady-state target cleavage rate” value is 0.0579 ± 0.016.

CUUAACCUCUGGAUCUACUGGGAUACCUAA: the “pre-steady-state target cleavage rate” value worked out at 0.0534 ± 0.015.

Take CUUAACCUCUGGAUCAACUGGGUUACCUUA: the “pre-steady-state target cleavage rate” value turned out to be 0.0681 ± 0.017.

As to CUUAUGCUCUGGAACUACUGGGUUACCUAA, the “pre-steady-state target cleavage rate” value stood at 0.0923 ± 0.019.

Take CUUAAGCUCUGGUUCUACUGGGUUACCAAA: the “pre-steady-state target cleavage rate” value was found to be 0.199 ± 0.063. Consider “CUUAAGGAGUGGAUCUACUGGGUUACCUAC [g2:g21:cont:t1C]”, for which the “pre-steady-state target cleavage rate” value was found to be 0.0381 ± 0.011. As for CUUAACGUCUGGAUCUACUGGGUUACGUAA, the “pre-steady-state target cleavage rate” value is 0.0333 ± 0.0083. As to CUUAACCUCUGGAUCUACUGGGUUACGUUA, the “pre-steady-state target cleavage rate” value was determined as 0.0873 ± 0.019.

For the sequence CUUAAGGAGACCUACACUGGGUUACCUAA, the “pre-steady-state target cleavage rate” value is less than 0.0001. Then CUUAACCACAGGAUCUACUGGGUUACCUAA, with 0.0274 ± 0.011; and CUUAUCGUCUGGAUGUACUGGGUUACCUAA, with 0.0226 ± 0.018.

Consider CUUAAGGUCUGGAACUACUGGGAUACCUAA, for which the “pre-steady-state target cleavage rate” value is 0.0098 ± 0.0064.

Turning to CUUAAGGAGAGGAUCUACUAGGUUACCUAA, the “pre-steady-state target cleavage rate” value was 0.00503 ± 0.0028. Regarding CUUAAGGAGACCUACUACUGGCUUACCAAA, the “pre-steady-state target cleavage rate” value was less than 0.0001. With CUUAAGGUCUGGUUCUACUGCGUUACCUAA, the “pre-steady-state target cleavage rate” value worked out at 0.0107 ± 0.008. As for CUUAAGGUCUGCAACUACUGGGUUACCUAA, the “pre-steady-state target cleavage rate” value stood at 0.0152 ± 0.01.

As to CUUAAGGUCUGGAUCUACUGGGUUACCUGA, the “pre-steady-state target cleavage rate” value turned out to be 0.0814 ± 0.03. On to CUUAAGCUCAGGAUCUUCUGGGUUACCUAA, for which the “pre-steady-state target cleavage rate” value worked out at 0.05 ± 0.015. Regarding CUUAAGGUCAGGAUCUACUGGGUAACCUAA, the “pre-steady-state target cleavage rate” value came out at 0.0125 ± 0.0079. Take CUUAAGGUCUGGAUCUACUGGGGUUACCUAA: the “pre-steady-state target cleavage rate” value stood at 0.0236 ± 0.0061. In the case of CUUAAGCUCUGGAUCUACUGGGUUACCAUAA, the “pre-steady-state target cleavage rate” value turned out to be 0.0886 ± 0.019. To CUUAUCCUCUGCAUCUACUGGGUUACCAAA belongs 0.408 ± 0.12; to CUUAAGGUGUGCAUCUACUGGGUUACCUAA, 0.0305 ± 0.017. For the sequence CUUAAGGACUGGUUCUACUGGGUUACCUAA, the “pre-steady-state target cleavage rate” value amounted to 0.0227 ± 0.015. Then CUUAAGGAGAGGAUCUACUGGGUUACCAUA, with 0.00706 ± 0.0034; and CUUAACCUGCUGGAUCUACUGGGUUACCUAA, with 0.12 ± 0.029. To CUUAACCUCUGGAUCUUCUGGGUUAGCUAA belongs 0.0589 ± 0.017. As for CUUAAGGAGUGCAUCUACUGGGUUACCUAA, the “pre-steady-state target cleavage rate” value is 0.0147 ± 0.0078. Turning to CUUAUCCUCAGGAUCUACUGGGUUACCUUA, the “pre-steady-state target cleavage rate” value is 0.0743 ± 0.016. In the case of CUUAACCUCUGGAUGUACUGCGUUACCUAA, the “pre-steady-state target cleavage rate” value turned out to be 0.0173 ± 0.0066. With CUUAAGGUCUGGAUCUACUGGGUUCCCUAA, the “pre-steady-state target cleavage rate” value came out at 0.0161 ± 0.0069. As for CUUAACCUCUGGAACUACUGGGUUACCUUA, the “pre-steady-state target cleavage rate” value amounted to 0.154 ± 0.045. Then CUUAUGCUCUGGAUCUAGUGGGUUACCUAA, with 0.0331 ± 0.0066; and CUUAUCCUCUCGAUCUACUGGGUUAGCUAA, with 0.116 ± 0.027. Then CUUAAGGUCUGGAACUACUGGGUUACCUAA, with 0.0452 ± 0.019; and CUUAUCCUGUGGAUCUAGUGGGUUACCUAA, with 0.0634 ± 0.01. CUUAUCCUGUGGAUCUACUGGGAUACCUAA: the “pre-steady-state target cleavage rate” value was 0.0135 ± 0.0047. On to CUUAUCCUCUGGAUCUACUGGGUUACAUAA, for which the “pre-steady-state target cleavage rate” value stood at 0.0919 ± 0.021.

For the sequence CUUAUCCUCUGCAUCUUCUGGGUUACCUAA, the “pre-steady-state target cleavage rate” value is 0.17 ± 0.038. Consider CUUAACCUCUGGAUCUACUGGGUGACCUAA, for which the “pre-steady-state target cleavage rate” value turned out to be 0.0533 ± 0.014. Turning to CUUAACCGUCUGGAUCUACUGGGUUACCUAA, the “pre-steady-state target cleavage rate” value came to 0.0898 ± 0.024. On to CUUAAGCUCUGGAUCUACUGGGUGUACCUAA, for which the “pre-steady-state target cleavage rate” value worked out at 0.0345 ± 0.0091.

Consider CUUAAGGUCUGGAUCUACUGGGAUUACCUAA, for which the “pre-steady-state target cleavage rate” value worked out at 0.0236 ± 0.008.

For the sequence CUUAUCCACUGGAUCAACUGGGUUACCUAA, the “pre-steady-state target cleavage rate” value was determined as 0.0536 ± 0.0086.

Regarding CUUAAGCUGUGGAUCAACUGGGUUACCUAA, the “pre-steady-state target cleavage rate” value is 0.0291 ± 0.011. Then CUUAUCCUUGGAUCUACUGGGUUACCUAA, with 0.127 ± 0.04; and CUUAACCUGUGCAUCUACUGGGUUACCUAA, with 0.123 ± 0.026. As for CUUAACCUCUGGAUCUACUGGGUUACGUAA, the “pre-steady-state target cleavage rate” value amounted to 0.0671 ± 0.018.

Regarding CUUAACCUCUGGUUCUACUGGGUUACCUAA, the “pre-steady-state target cleavage rate” value was found to be 0.141 ± 0.031. As to CUUAUCCUCAGGAUCUACUGCGUUACCUAA, the “pre-steady-state target cleavage rate” value worked out at 0.0104 ± 0.0053. Consider CUUAUCCUCUCGGAUCUACUGGGUUACCUAA, for which the “pre-steady-state target cleavage rate” value came out at 0.0384 ± 0.011. To CUUAAGGAGAGGAUCUACUGGGUUACCCUAA belongs 0.00484 ± 0.0047. Then CUUAUCCACUGGAUCUACUGGGAUACCUAA, with 0.0244 ± 0.0059.

In the case of CUUAAGCUCUCGAUCUUCUGGGUUACCUAA, the “pre-steady-state target cleavage rate” value was found to be 0.127 ± 0.02.

CUUAAGGUCUGGUUCUACUGGGUUACCAAA: the “pre-steady-state target cleavage rate” value is 0.0161 ± 0.007. To CUUAAGGAGUGGAUCUACUGGGUUAGCCUAA belongs 0.0282 ± 0.013. CUUAACCUCUGCAUCUUCUGGGUUACCUAA: the “pre-steady-state target cleavage rate” value amounted to 0.112 ± 0.023. As to CUUAACCUCUGGAUCUACUGGGAUUCCUAA, the “pre-steady-state target cleavage rate” value came to 0.0791 ± 0.036. Turning to CUUAAGGACUGGAUCUACUGGGUUAUCUAA, the “pre-steady-state target cleavage rate” value is 0.0246 ± 0.015.

In the case of CUUAAGCUCUGGAUGCUACUGGGUUACCUAA, the “pre-steady-state target cleavage rate” value is 0.0393 ± 0.012.
